# Results taken from the supplement of paper PMC8728848.
# The list shows a part of the results.
# B1: Pwp2 (Candida glabrata) (protein)
# chain: MGSSHHHHHHSSGLVPRGSHMASKNPVELNNVCTFPNDYGRIPGFTVLVGRLGLLISASDYKELLRYPGAFLIATQDTMTTSPNFELTGFPFFTGLYGLTVFPLDLLVELRGYFVPPNSGQYTFTLSDSDDAAIIFLGNPSAFPCGDLQNWPKPSEEDITVTDHLFPSRTLYLIEGVAYPMRIAYYNGIGAGRLNAAFIDPSGTRHTNWEGYIWQYDPCSTCTYS
# Experiments:
# Experiment in all cases: glycan array binding signal (z-score within array); higher = stronger binding
# Conditions in all cases: glycan notation: IUPAC condensed, linker removed
# Fuc(a1-2)Gal = target: Fuc(a1-2)Gal
# In short: (§1)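 Glycan array data came from 3228 arrays in the Consortium for Functional Glycomics database, and only arrays with an available protein sequence were kept. Glycan names were put into IUPAC-condensed notation, and columns mapping to the same glycan were averaged. The binding signal is a within-array Z-score, averaged across arrays of one protein sequence run at different concentrations or buffers and across linkers. A negative Z-score can be read as non-binding.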
# Fuc(a1-2)Gal(b1-3)GalNAc = target: Fuc(a1-2)Gal(b1-3)GalNAc
# In short: as §1
# [1] = target: Fuc(a1-2)Gal(b1-3)GalNAc(a1-3)[Fuc(a1-2)]Gal(b1-4)Glc
# In short: as §1
# [2] = target: Fuc(a1-2)Gal(b1-3)GalNAc(a1-3)[Fuc(a1-2)]Gal(b1-4)GlcNAc
# In short: as §1
# [3] = target: Fuc(a1-2)Gal(b1-3)GalNAc(b1-3)Gal
# In short: as §1
# [4] = target: Fuc(a1-2)Gal(b1-3)GalNAc(b1-3)Gal(a1-4)Gal(b1-4)Glc
# In short: as §1
# [5] = target: Fuc(a1-2)Gal(b1-3)GalNAc(b1-4)[Neu5Ac(a2-3)]Gal(b1-4)Glc
# In short: as §1
# Fuc(a1-2)Gal(b1-3)GlcNAc = target: Fuc(a1-2)Gal(b1-3)GlcNAc
# In short: as §1
# [6] = target: Fuc(a1-2)Gal(b1-3)GlcNAc(b1-2)Man(a1-3)[Fuc(a1-2)Gal(b1-3)GlcNAc(b1-2)Man(a1-6)]Man(b1-4)GlcNAc(b1-4)GlcNAc
# In short: as §1
# [7] = target: Fuc(a1-2)Gal(b1-3)GlcNAc(b1-2)Man(a1-3)[Fuc(a1-2)Gal(b1-3)GlcNAc(b1-2)Man(a1-6)]Man(b1-4)GlcNAc(b1-4)[Fuc(a1-6)]GlcNAc
# In short: as §1
# [8] = target: Fuc(a1-2)Gal(b1-3)GlcNAc(b1-3)Gal(b1-4)Glc
# In short: as §1
# [9] = target: Fuc(a1-2)Gal(b1-3)GlcNAc(b1-3)GalNAc
# In short: as §1
# [10] = target: Fuc(a1-2)Gal(b1-3)GlcNAc(b1-3)[Fuc(a1-2)Gal(b1-3)GlcNAc(b1-6)]GalNAc
# In short: as §1
# [11] = target: Fuc(a1-2)Gal(b1-3)GlcNAc(b1-3)[Gal(b1-4)GlcNAc(b1-6)]Gal(b1-4)Glc
# In short: as §1
# [12] = target: Fuc(a1-2)Gal(b1-3)GlcNAc(b1-3)[Neu5Ac(a2-6)Gal(b1-4)GlcNAc(b1-6)]Gal(b1-4)Glc
# In short: as §1
# [13] = target: Fuc(a1-2)Gal(b1-3)GlcNAc6S
# In short: as §1
# [14] = target: Fuc(a1-2)Gal(b1-3)[Fuc(a1-4)]GlcNAc
# In short: as §1
# [15] = target: Fuc(a1-2)Gal(b1-3)[Fuc(a1-4)]GlcNAc(b1-2)Man(a1-3)[Fuc(a1-2)Gal(b1-3)[Fuc(a1-4)]GlcNAc(b1-2)Man(a1-3)]Man(b1-4)GlcNAc(b1-4)GlcNAc
# In short: as §1
# [16] = target: Fuc(a1-2)Gal(b1-3)[Fuc(a1-4)]GlcNAc(b1-2)Man(a1-3)[Fuc(a1-2)Gal(b1-3)[Fuc(a1-4)]GlcNAc(b1-2)Man(a1-6)]Man(b1-4)GlcNAc(b1-4)[Fuc(a1-6)]GlcNAc(b1-4)[Fuc(a1-6)]GlcNAc
# In short: as §1
# [17] = target: Fuc(a1-2)Gal(b1-3)[Fuc(a1-4)]GlcNAc(b1-3)[Fuc(a1-3)[Gal(b1-4)]GlcNAc(b1-6)]Gal(b1-4)Glc
# In short: as §1
# [18] = target: Fuc(a1-2)Gal(b1-3)[Fuc(a1-4)]GlcNAc(b1-3)[Gal(b1-4)GlcNAc(b1-6)]Gal(b1-4)Glc
# In short: as §1
# Fuc(a1-2)Gal(b1-4)Glc = target: Fuc(a1-2)Gal(b1-4)Glc
# In short: as §1
# Fuc(a1-2)Gal(b1-4)Glc6S = target: Fuc(a1-2)Gal(b1-4)Glc6S
# In short: as §1
# Fuc(a1-2)Gal(b1-4)GlcNAc = target: Fuc(a1-2)Gal(b1-4)GlcNAc
# In short: as §1
# [19] = target: Fuc(a1-2)Gal(b1-4)GlcNAc(b1-2)Man
# In short: as §1
# [20] = target: Fuc(a1-2)Gal(b1-4)GlcNAc(b1-2)Man(a1-3)[Fuc(a1-2)Gal(b1-4)GlcNAc(b1-2)Man(a1-6)]Man(b1-4)GlcNAc(b1-4)GlcNAc
# In short: as §1
# [21] = target: Fuc(a1-2)Gal(b1-4)GlcNAc(b1-2)Man(a1-3)[Fuc(a1-2)Gal(b1-4)GlcNAc(b1-2)Man(a1-6)]Man(b1-4)GlcNAc(b1-4)[Fuc(a1-6)]GlcNAc
# In short: as §1
# [22] = target: Fuc(a1-2)Gal(b1-4)GlcNAc(b1-2)[Fuc(a1-2)Gal(b1-4)GlcNAc(b1-4)]Man(a1-3)[Fuc(a1-2)Gal(b1-4)GlcNAc(b1-2)Man(a1-6)]Man(b1-4)GlcNAc(b1-4)GlcNAc
# In short: as §1
# [23] = target: Fuc(a1-2)Gal(b1-4)GlcNAc(b1-3)Gal(b1-4)GlcNAc
# In short: as §1
# [24] = target: Fuc(a1-2)Gal(b1-4)GlcNAc(b1-3)Gal(b1-4)GlcNAc(b1-2)Man(a1-3)[Fuc(a1-2)Gal(b1-4)GlcNAc(b1-3)Gal(b1-4)GlcNAc(b1-2)Man(a1-6)]Man(b1-4)GlcNAc(b1-4)GlcNAc
# In short: as §1
# [25] = target: Fuc(a1-2)Gal(b1-4)GlcNAc(b1-3)Gal(b1-4)GlcNAc(b1-3)Gal(b1-4)GlcNAc
# In short: as §1
# [26] = target: Fuc(a1-2)Gal(b1-4)GlcNAc(b1-3)GalNAc
# In short: as §1
# [27] = target: Fuc(a1-2)Gal(b1-4)GlcNAc(b1-3)[Fuc(a1-2)Gal(b1-4)GlcNAc(b1-6)]GalNAc
# In short: as §1
# [28] = target: Fuc(a1-2)Gal(b1-4)GlcNAc(b1-3)[Fuc(a1-3)[Gal(b1-4)]GlcNAc(b1-6)]Gal(b1-4)Glc
# In short: as §1
# [29] = target: Fuc(a1-2)Gal(b1-4)GlcNAc(b1-6)GalNAc
# In short: as §1
# [30] = target: Fuc(a1-2)Gal(b1-4)GlcNAc6S
# In short: as §1
# [31] = target: Fuc(a1-2)Gal(b1-4)[Fuc(a1-3)]GlcNAc
# In short: as §1
binder,measurement,setting,value
B1,glycan array binding signal (z-score),Fuc(a1-2)Gal,-0.501
same,glycan array binding signal (z-score),Fuc(a1-2)Gal(b1-3)GalNAc,-0.523
same,glycan array binding signal (z-score),[1],-0.495
same,glycan array binding signal (z-score),[2],-0.104
same,glycan array binding signal (z-score),[3],-0.059
same,glycan array binding signal (z-score),[4],-0.108
same,glycan array binding signal (z-score),[5],-0.132
same,glycan array binding signal (z-score),Fuc(a1-2)Gal(b1-3)GlcNAc,-0.778
same,glycan array binding signal (z-score),[6],2.37
same,glycan array binding signal (z-score),[7],-0.263
same,glycan array binding signal (z-score),[8],-0.416
same,glycan array binding signal (z-score),[9],-0.399
same,glycan array binding signal (z-score),[10],1.29
same,glycan array binding signal (z-score),[11],-0.594
same,glycan array binding signal (z-score),[12],-0.401
same,glycan array binding signal (z-score),[13],2.25
same,glycan array binding signal (z-score),[14],-0.451
same,glycan array binding signal (z-score),[15],0.102
same,glycan array binding signal (z-score),[16],6.32
same,glycan array binding signal (z-score),[17],-0.522
same,glycan array binding signal (z-score),[18],-0.414
same,glycan array binding signal (z-score),Fuc(a1-2)Gal(b1-4)Glc,-0.29
same,glycan array binding signal (z-score),Fuc(a1-2)Gal(b1-4)Glc6S,-0.376
same,glycan array binding signal (z-score),Fuc(a1-2)Gal(b1-4)GlcNAc,-0.966
same,glycan array binding signal (z-score),[19],-0.406
same,glycan array binding signal (z-score),[20],-0.397
same,glycan array binding signal (z-score),[21],-0.088
same,glycan array binding signal (z-score),[22],1.24
same,glycan array binding signal (z-score),[23],0.356
same,glycan array binding signal (z-score),[24],0.852
same,glycan array binding signal (z-score),[25],0.261
same,glycan array binding signal (z-score),[26],-0.48
same,glycan array binding signal (z-score),[27],3.01
same,glycan array binding signal (z-score),[28],0.384
same,glycan array binding signal (z-score),[29],-0.293
same,glycan array binding signal (z-score),[30],-0.464
same,glycan array binding signal (z-score),[31],-0.132
